Results as given in the supplement of paper PMC10126150.
Sequences with one replicate were seen in a single cluster, so their values are uncertain.

System: ATP
Assay: switch fluorescence ratio, 500 uM ATP over buffer (Cy3 cluster intensity, sum of 5 cycles each) (fold (ratio)); higher = stronger signal-on switching upon ATP binding; sequences stand for … in TCGTCGGCAGCGTCAGATGTGTATAAGAGACAGTTTTTTTTTTTTTTTTTTTTTTTTT…TC
Conditions: aptamer strand: ATP DNA aptamer (quencher-CACCTGGGGGAGTATTGCGGAGGAAGG + anchor), 100 nM annealed; ATP concentration: 500 uM; one replicate
Outline: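 Between each of five buffer/ATP cycles, the flow-cell was stripped with NaOH and re-annealed. Each cycle imaged Cy3-labelled switching-strand clusters, annealed to 100 nM quencher-labelled ATP aptamer on a modified Illumina MiSeq flow-cell, first in selection buffer and then after 15 min with 500 uM ATP at 22 °C. The fluorescence ratio is summed target-cycle over summed buffer-cycle Cy3 intensity per cluster, averaged per switch-domain sequence, with clusters outside 100-1000 RFU excluded.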
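Further: ATP exposure 15 min at 22 °C before imaging.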

Sequence	switch fluorescence ratio
AAAAAAGTAT	1.06
AAAAAGGA	0.98
AAAAATCGCC	1.02
AAAAATGCAG	1.01
AAAAATGTAG	1.02
AAAACCATCC	2.1
AAAACCATGG	1.01
AAAACGCTGA	1.27
AAAACGGAAT	1.02
AAAACGGTTA	1.02
AAAACGTAA	1.09
AAAACGTACG	1.27
AAAACTACAT	1.03
AAAACTCAAG	1.05
AAAAGCATTC	1.12
AAAAGCGAA	1.01
AAAAGCGTTT	1.06
AAAAGCTCAT	0.986
AAAAGGAAAA	0.988
AAAAGGAAGC	0.977
AAAAGGTCCG	0.968
AAAAGTACAG	1.03
AAAAGTCGTG	0.956
AAAAGTCTCT	1
AAAATAGGTG	1.06
AAAATCATCG	0.991

Sequence	switch fluorescence ratio
AAAATCGCGC	1.03
AAAATCGGTT	0.969
AAAATCTTGG	1.01
AAAATGACTC	1.02
AAAATGTCGT	1.01
AAAATTCCTC	1.11
AAACAAGTTT	0.981
AAACCATTGC	1.03
AAACCCCGGA	1.12
AAACCCGTTT	1.01
AAACCTATAT	0.997
AAACGACATA	1.08
AAACGCAGCC	1.39
AAACGCAGG	0.972
AAACGCATGT	0.97
AAACGCGACG	1.05
AAACGCGTG	1.04
AAACGCTCAC	1.68
AAACGGCGCG	1.04
AAACGGTTCC	1.41
AAACTAAA	0.969
AAACTACTGG	1.01
AAACTATATT	1
AAACTCACAT	1.17
AAACTCTTGC	1.52
AAACTGACTT	1.1

Sequence	switch fluorescence ratio
AAACTGCGGG	0.997
AAACTGGCGA	0.954
AAACTTAGCC	0.998
AAACTTATC	1.06
AAACTTGATA	1.01
AAAGAAAATG	1.03
AAAGAATTAT	0.938
AAAGACAGGT	1.04
AAAGACCCCT	1.04
AAAGACGTGG	0.976
AAAGAGCCGC	1.05
AAAGATAGGA	0.971
AAAGATCCAG	0.98
AAAGATTAGC	0.984
AAAGATTTAG	0.981
AAAGCATGGT	1.01
AAAGCATTGA	1
AAAGCCGTGT	1.04
AAAGCGGGTG	1.09
AAAGCGTAGT	1.02
AAAGCGTCAT	0.955
AAAGCTAGAG	1.04
AAAGCTGCTC	1.06
AAAGGAAGTT	1.01
AAAGGAGCGA	0.988
AAAGGCAATC	2.59

Sequence	switch fluorescence ratio
AAAGGGAATC	1.02
AAAGGGTCCA	0.988
AAAGGGTCTA	0.988
AAAGGTCTCT	0.981
AAAGGTTTAA	0.981
AAAGTACCTG	1.16
AAAGTACTAC	1.22
AAAGTACTTA	1.12
AAAGTATAAG	0.964
AAAGTCGAGG	0.988
AAAGTCTGAA	0.971
AAAGTGCCCA	1.01
AAAGTGCTAC	1.03
AAAGTGGCAG	1.01
AAAGTTAGGT	0.968
AAAGTTCACC	1.01
AAAGTTCTGT	1.01
AAAGTTGATA	0.951
AAAGTTGTA	0.956
AAAGTTTACT	1.14
AAAGTTTGC	1.02
AAATAAAAGG	1
AAATAAGGGC	1.01
AAATACAGAA	1
AAATACGGCA	1.06
AAATAGAGTG	0.978

Sequence	switch fluorescence ratio
AAATAGGTCC	1.05
AAATAGTCAT	0.975
AAATATTTTC	0.96
AAATCACCG	1.05
AAATCATTG	1.01
AAATCCCGAT	1.01
AAATCCTTCG	1.91
AAATCGAAAG	1.04
AAATCGGACT	1.02
AAATCGGAGT	0.972
AAATCTACC	1.16
AAATCTAGAG	1.01
AAATCTGCTT	1.02
AAATCTTGGA	0.974
AAATGAGGAT	1.01
AAATGATAGG	1
AAATGCAAG	0.977
AAATGCCCTC	0.993
AAATGCGGGT	1
AAATGCTCCG	1.05
AAATGCTGGT	1.05
AAATGGACGG	1.03
AAATGTGAT	1.03
AAATGTTCGA	0.998
AAATTAAACA	0.995
AAATTACACT	1.08

Sequence	switch fluorescence ratio
AAATTAGATC	1.02
AAATTAGCGT	0.945
AAATTAGGGT	0.978
AAATTCAATT	0.989
AAATTCCCCG	1.03
AAATTCGCCG	1.11
AAATTCTATC	0.95
AAATTGTTGG	1.02
AAATTTCATC	1.05
AACAACTCA	1.02
AACAAGAGAA	1.05
AACAAGATTA	0.991
AACACAGGGG	1.93
AACACCTGCT	0.998
AACACGCTTC	1.05
AACACTTCGC	1.16
AACAGAAGAT	1.01
AACAGCAAGA	1.06
AACAGCCGGT	1.03
AACAGCTC	1.01
AACAGTCATA	1.01
AACATAAGGG	1
AACATAGGCT	0.97
AACATATCGT	1.1
AACATATGTA	0.941
AACATCTTT	1.03

Sequence	switch fluorescence ratio
AACATGGCGA	1.01
AACATTCGGC	1.01
AACATTGTGA	1.02
AACATTTA	1.04
AACCACCAGT	1.3
AACCACCATA	1.05
AACCACTGCC	1.16
AACCAGTAG	1.05
AACCCACGCT	1.34
AACCCGATAT	1.05
AACCGACCAC	1.96
AACCGAGGA	1.04
AACCGCCCTA	1.32
AACCGCGCAA	2.88
AACCGCGCGG	0.99
AACCGCTGAG	1.24
AACCGCTTAT	1.6
AACCGTTCGG	0.942
AACCTACTGG	1.04
AACCTCGACT	1.14
AACCTCTATG	1.01
AACCTCTGTT	1.04
AACCTGACTA	1.98
AACCTGCAGT	1.01
AACCTGTTTG	1
AACGAACGGT	1.1

Sequence	switch fluorescence ratio
AACGAAGCT	1.41
AACGAGAATG	1
AACGAGGACG	0.964
AACGAGGTTT	0.992
AACGATCTTA	0.99
AACGATGGAA	0.981
AACGGACTAA	1.26
AACGGCCTAT	1
AACGGCTGTT	1
AACGGGATTC	1.01
AACGGGGTAT	1.06
AACGGGGTCC	1.01
AACGGGTAAA	1.16
AACGGGTTCA	1.03
AACGGTACGT	0.979
AACGGTTAAG	1.02
AACGGTTCAC	1.09
AACGGTTGAC	1.09
AACGTAACGG	1.25
